# Reference: publication PMC4336329 (PLoS ONE, 2015)
# The campaign covered roughly 310,000 compounds. About 14,000 (4.5%) showed an effect of 50% or more. Effects have a minus sign here. This is one part of the list.
# Molecular target: human ether-à-go-go-related gene (hERG) potassium channel (human, UniProt Q12809)
# Test: primary screen, population patch clamp on CHO cells stably expressing hERG
# 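Note: peak tail current of the secondary pulse compared with the same well before compound.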
# Sequence of human ether-à-go-go-related gene (hERG) potassium channel (Q12809 whole entry, looked up): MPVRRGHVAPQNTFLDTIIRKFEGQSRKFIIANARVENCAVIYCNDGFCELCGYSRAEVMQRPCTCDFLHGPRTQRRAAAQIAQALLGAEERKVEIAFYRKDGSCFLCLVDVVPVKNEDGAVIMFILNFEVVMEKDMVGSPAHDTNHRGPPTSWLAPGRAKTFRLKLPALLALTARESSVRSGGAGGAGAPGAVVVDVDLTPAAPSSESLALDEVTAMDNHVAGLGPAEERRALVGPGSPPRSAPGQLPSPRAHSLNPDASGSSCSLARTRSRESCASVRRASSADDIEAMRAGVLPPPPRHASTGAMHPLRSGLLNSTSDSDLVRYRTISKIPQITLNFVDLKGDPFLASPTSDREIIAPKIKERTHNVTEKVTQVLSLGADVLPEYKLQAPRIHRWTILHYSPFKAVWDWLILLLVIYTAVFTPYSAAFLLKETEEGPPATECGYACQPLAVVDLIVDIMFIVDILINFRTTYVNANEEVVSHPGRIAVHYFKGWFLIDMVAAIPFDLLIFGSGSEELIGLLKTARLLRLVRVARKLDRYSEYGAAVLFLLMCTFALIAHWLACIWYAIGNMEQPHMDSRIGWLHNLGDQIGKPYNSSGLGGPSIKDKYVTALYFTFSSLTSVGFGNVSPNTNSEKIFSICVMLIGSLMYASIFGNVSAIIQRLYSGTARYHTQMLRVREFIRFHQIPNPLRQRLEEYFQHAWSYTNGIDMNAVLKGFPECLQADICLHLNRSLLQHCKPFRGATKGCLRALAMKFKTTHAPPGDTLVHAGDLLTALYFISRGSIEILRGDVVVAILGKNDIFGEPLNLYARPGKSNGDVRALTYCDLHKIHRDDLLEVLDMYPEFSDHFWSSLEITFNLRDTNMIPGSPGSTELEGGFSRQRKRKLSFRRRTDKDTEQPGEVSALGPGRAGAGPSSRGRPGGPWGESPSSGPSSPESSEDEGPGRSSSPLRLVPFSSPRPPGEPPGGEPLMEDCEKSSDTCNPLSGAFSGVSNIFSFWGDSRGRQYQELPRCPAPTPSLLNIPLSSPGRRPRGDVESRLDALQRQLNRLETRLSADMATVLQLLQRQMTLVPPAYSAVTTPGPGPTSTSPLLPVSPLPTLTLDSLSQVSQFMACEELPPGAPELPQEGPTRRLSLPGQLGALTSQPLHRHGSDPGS
row,Structure (SMILES),"hERG current change (%, negative = inhibition) at 10uM [%]"
1,CCCc1cc(N2CCC(C(N)=O)CC2)nc(-c2ccccc2)n1,-19.1
2,OC(COCc1cccs1)CN1CCN(c2cccc(C(F)(F)F)c2)CC1 (centres unmarked),-69.6
3,CCOC(=O)[C@H]1[C@H]2COc3cc(OC)ccc3[C@@H]2N2C(=O)c3cc(OC)ccc3NC(=O)[C@@]12C,-4.66
4,O=C(Oc1cccnc1)c1ccc(Cl)c(Cl)c1,2.56
5,Cc1ccccc1NC(=O)/C(=C/c1ccccc1)c1ccccc1,0.411
6,Cc1ccc(S(=O)(=O)N2CCOCC2)cc1C(=O)NCc1cccs1,-5.18
7,CC(=O)NC(c1ccc(C)cc1)c1cc([N+](=O)[O-])c2cccnc2c1O (centres unmarked),1.93
8,Cc1ccc(NC(=O)CN(C)C(=O)c2cc(C)on2)cc1,-4.91
9,COc1ccc2oc(C(=O)N3CCN(C(=O)c4ccco4)CC3)c(C)c2c1,-24.7
10,Cc1cc(/C=C2\SC(=S)NC2=O)c(C)n1-c1ccccc1,14.6
11,COCCn1ccc(O)c(Cc2ccc(Cl)cc2)c1=O,-0.571
12,C=CCN1CCN(C(CC(C)C)c2nnnn2CCOC)CC1.Cl (centres unmarked),8.96
13,N#Cc1nc(-c2cccc(Cl)c2)oc1N1CCC(C(N)=O)CC1,0.912
14,CCOC(=O)N1CCC(NC(=O)CCC(=O)N2CC(C)Oc3ccccc32)CC1 (centres unmarked),2.44
15,COc1ccc(OC)c(C(=O)CSc2nnc(-c3cccs3)n2C)c1,14.4
16,CCOC(=O)c1nc(Nc2ccc(C(=O)O)cc2)c2ccccc2n1.Cl,1.54
17,CCOc1cccc(/C=N/NC(=O)CC2C(=O)NN=C2C)c1O (centres unmarked),15.5
18,CCC(C)n1c(-c2cccs2)nc2nc3ccccc3nc21 (centres unmarked),-4.95
19,Cc1cc(C(=O)COC(=O)c2ccc(N)c([N+](=O)[O-])c2)c(C)n1-c1ccc2c(c1)OCO2,6.01
20,COc1ccc(CSc2nnc(C)n2N)cc1Br,4.67
21,CN1CCN(CCCn2cnc3c(=O)oc4ccccc4c32)CC1,8.19
22,Cc1ccccc1C(=O)NNC(=O)c1ccncc1,10.6
23,Cc1ccc(-c2csc(/C(C#N)=C(\O)CN3CCN(C(=O)c4ccco4)CC3)n2)cc1,0.609

row,Structure (SMILES),"hERG current change (%, negative = inhibition) at 10uM [%]"
1,CC(C)c1ccc(CNn2cnnc2)cc1,-4.85
2,Cc1c(N=Nc2c(O)n(Cc3ccccc3)c(=O)[nH]c2=O)c(=O)n(-c2ccccc2)n1C,-11.4
3,Cc1ccc(NC(=S)N2CCN(c3ccccc3F)CC2)c(C)c1,14
4,COc1ccccc1-c1nnc(SC2CCc3ccccc3NC2=O)s1 (centres unmarked),9.02
5,COc1ccc(C2C=C(c3ccccc3)Nc3ncnn32)cc1 (centres unmarked),-57.4
6,COc1ccc(NC(=O)Nc2cccc([N+](=O)[O-])c2)cc1Cl,-7.77
7,O=C(NCC(c1ccco1)N1CCc2ccccc21)c1ccccc1Cl (centres unmarked),-60.2
8,Cc1ccc(C)c(OCC(=O)OCC(=O)Nc2c(C)nn(-c3ccccc3)c2C)c1,-5.33
9,O=C(NCC1CCCO1)c1ccc2c(c1)N(Cc1ccccc1)C(=O)CS2 (centres unmarked),-31.9
10,Cc1cccc(Cn2c(C(C)O)nc3ccccc32)c1 (centres unmarked),5.37
11,CC(C)(C)N1CC23C=CC(C[C@@H]2C1=O)O3 (some centres unmarked),0.587
12,Cc1cccc(NC(=O)c2ccc(-n3cccn3)c([N+](=O)[O-])c2)c1,-20.4
13,COc1ccc2cc3c(N)c(C(=O)NCc4ccco4)sc3nc2c1,-12
14,Fc1cccc(CCN2CCNC[C@@H]2CC2CCCCC2)c1,-19.1
15,COc1ccc(-c2ccc(/C=N/N3C(=O)C4C5C=CC(C6CC56)C4C3=O)o2)c([N+](=O)[O-])c1 (centres unmarked),-58.9
16,O=c1c2cnn(-c3ccccc3)c2ncn1Cc1cccnc1,-2.1
17,Br.C1=C(c2ccco2)N2CCN=C2S1,1.91
18,CC(C)(C)NS(=O)(=O)c1ccc(CCC(=O)NCc2ccc3c(c2)OCO3)cc1,-26.2
19,CC(C)CCn1c(Cl)nc2c1c(=O)n(C)c(=O)n2C,-4.57
20,CCOC(=O)[C@@H]1[C@H]2COc3ccccc3[C@@H]2N2C(=O)N(c3ccc(OC)cc3)C(=O)[C@]12C,-6.02
21,COc1cc(Br)cc(C=Nc2cccc(C(F)(F)F)c2)c1O,4.79
22,O=C(CCl)N1N=C(c2ccco2)CC1c1cccs1 (centres unmarked),-3.6
23,CC(Oc1cc(C(F)(F)F)cc(C(F)(F)F)c1)C(=O)NC(N)=O (centres unmarked),-9.42

row,Structure (SMILES),"hERG current change (%, negative = inhibition) at 10uM [%]"
1,COc1ccc(NC(=O)CSCC(=O)Nc2ccccc2C(=O)N2CCCCC2)cc1,1.04
2,COc1cccc(/C=C/C(=O)NNC(=O)CCN2CCN(Cc3ccccc3)CC2)c1,-36.7
3,O=C(NC1CCCCC1)C(=S)N1CCOCC1,6.33
4,CCN(CC)C(=O)Cn1cnc2sc(C(=O)Nc3cc(OC)c(OC)c(OC)c3)c(C)c2c1=O,14.5
5,O=C(CNC(=O)c1ccc(Cl)cc1Cl)NCc1ccccn1,3.7
6,Cc1cc2c(=O)n(C)c(SCC(=O)Nc3cccc(O)c3)nc2s1,1.81
7,COc1cc2c(cc1OC)CC(=O)NC=C2,13.1
8,O=C1C(=O)N(CCO)C(c2cccc(F)c2)/C1=C(\O)c1ccc(Cl)cc1 (centres unmarked),0.95
9,COc1cc2c(cc1OC)C(c1cc(C)ccc1C)CC(=O)N2 (centres unmarked),9.15
10,Cc1cc(C)c(NC(=S)NCCCSC2CCCCC2)c(C)c1,11.2
11,O=C(OCn1ncc(Br)c(Br)c1=O)c1c(F)cccc1F,14.9
12,COc1ccc(-c2nnc(SCc3cccnc3)o2)cc1,-19.8
13,CN1CCN(C(=O)c2ccc3c(c2)N(Cc2ccccc2)CCS3)CC1,-27.2
14,O=C(NCc1ccc(Cl)cc1)N1CCc2ccccc2C1,5.41
15,O=C(NCn1ccc(=O)[nH]c1=S)c1ccccc1,7.64
16,COC(=O)c1ccc(C23CC4(C2)[C@H](CN(C)[C@@H]4c2ccccc2)C3c2ccccc2)cc1 (some centres unmarked),-2.82
17,O=C(O)CCCSc1nccn1-c1ccccc1,22.3
18,CN(Cc1ccccc1)S(=O)(=O)c1ccc(Cl)c(C(=O)NCCc2ccccn2)c1,-61.8
19,Cc1ccc(S(=O)(=O)N(C)CC(=O)NCCCn2ccnc2)cc1,9.92
20,COc1ccccc1N1CCN(C(=O)CSc2nnc(NC(=O)c3ccco3)s2)CC1,13.6
21,COCC(=O)Nc1nnc(SCC(=O)N2CCCCC2)s1,17.9
22,Cc1ccc2nc(SCC(=O)Nc3c(C)n(C)n(-c4ccccc4)c3=O)[nH]c2c1,4.39
23,CCN1C(=O)NC(=O)/C(=C\c2ccc(N3CCOCC3)cc2OC)C1=O,13.7

row,Structure (SMILES),"hERG current change (%, negative = inhibition) at 10uM [%]"
1,O=C(CSc1ccccc1)Nc1ccc(N2CCOCC2)cc1,2.98
2,COC(=O)c1cc(S(=O)(=O)NCC2CCN(CCc3cccs3)CC2)cn1C,-49.6
3,O=C(CN1C(=O)NC2(CCCCC2)C1=O)Nc1cccc2ncccc12,7.41
4,O=C(NC(=O)N1CCCCC1)c1ccc(Cl)cc1,15.7
5,O=C(CCCOc1cccc(Br)c1)NCCOc1ccccc1,-19.9
6,Cc1ccc(C(=O)c2ccc(N3CCN(C)CC3)c([N+](=O)[O-])c2)cc1,-68.8
7,CCn1c(SCC(=O)NC2(C#N)CCCCC2)nc2ccccc2c1=O,-5.52
8,Fc1ccc(-[n+]2nc(Nc3ccccc3)sc2-c2cccc(Cl)c2Cl)cc1.[Cl-],8
9,CCN(CC(=O)Nc1c(F)cccc1F)C(=O)Cc1csc(-c2ccccc2)n1,-13.8
10,Cc1cc(C)cc(N(C(=O)CNC(=O)c2ccco2)C(C(=O)NC2CCCCC2)c2cccnc2)c1 (centres unmarked),22.1
11,COC(=O)C1=CN(Cc2ccc(C)cc2)C=C(C(=O)OC)C1c1ccc(F)c(F)c1,7.48
12,O=C(COc1ccccc1Cl)Nc1nnc(S(=O)(=O)N2CCCCCC2)s1,7.96
13,Cc1sc2nc(CN3CCOCC3)[nH]c(=O)c2c1-c1ccccc1,2.19
14,COc1cc(NC(=O)COC(=O)CO/N=C(\C)c2ccc3c(c2)OCO3)cc(OC)c1OC,9.08
15,CC1CCCCC1NC(=O)c1cccc(NC2=NC3CS(=O)(=O)CC3S2)c1 (centres unmarked),-12.2
16,C/C(=N\O)C(C)(C)Nc1ccc(Cl)cc1,-0.0105
17,CCOc1ccccc1NC(=S)Nn1cnnc1,15.2
18,CCOC(=O)COn1c(=O)c(-c2ccc(F)cc2)[n+]([O-])c2ccccc21,5.49
19,COc1ccc(CNC(=O)NCCc2c[nH]c3ccccc23)cc1,-2.66
20,COc1ccc(/C=N/NC(=O)c2cc(-c3ccccc3)nc3ccccc23)c(C(=O)O)c1OC,14.6
